Data as given in patent US20230037911A1 (SHANGHAI HENLIUS BIOTECH, published 2023).
Residue numbers refer to the chain shown, from its start. Each block holds one binder with its values, some of them ahead of it.

Legend:
[1] = biological target: T1, human TIGIT stably expressed on cells (Jurkat; 293T) (human, UniProt Q495A1 22-244); assay: cell-based or functional assay
T1 sequence: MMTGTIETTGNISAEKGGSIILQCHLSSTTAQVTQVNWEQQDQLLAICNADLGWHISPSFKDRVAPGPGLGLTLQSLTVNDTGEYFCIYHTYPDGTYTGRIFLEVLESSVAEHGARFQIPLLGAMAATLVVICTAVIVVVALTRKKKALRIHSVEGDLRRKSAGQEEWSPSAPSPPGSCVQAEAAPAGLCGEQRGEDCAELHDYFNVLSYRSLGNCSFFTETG

[2] = biological target: T1, human TIGIT stably expressed on cells …; assay: flow cytometry, whole cell binding on Jurkat cells stably expressing human TIGIT; Alexa Fluor 488 anti-human IgG Fc secondary
Text: FIGS. 1A-1C depict whole cell binding of representative VHH bivalent antibodies to human TIGIT determined by flowcytometry assays. […] Y axis represents Mean Fluorescence Intensity of AlexaFlour 488. X axis represents antibody concentrations in nanomolar. […] FIG. 1C is a schematic of the structure of a TIGIT VHH bivalent antibody.
Jurkat cells stably expressing human TIGIT and NFAT reporter gene were established. Specifically, Jurkat cells were transfected with human TIGIT expression vector by electroporation, and cells stably expressing human TIGIT were selected by 1 μg/ml puromycin during cell culture. Representative antibody clones were incubated at different concentrations with h-TIGIT stably expressing Jurkat cells (0.2×10⁶/ml) in 100 μl/well in 96-well plate in FACS buffer (PBS with 1.5% FBS) for 30 min. After washing, Alexaflour 488 conjugated anti-human IgG Fc secondary antibody (Alexa Fluor® 488 AffiniPure Goat Anti-Human IgG, Fcγ fragment specific, Jackson labs, 1:500 dilution) was added and incubated for 30 min. After washing, mean fluorescence intensity was measured using CytoFlex (Beckman Coulter) by gating live cell population. Binding affinity was calculated using GraphPad Prism.

[3] = biological target: T1, human TIGIT stably expressed on cells …; assay: cell-based or functional assay; remark: listed apart in the source
[4] = biological target: T1, human TIGIT stably expressed on cells …; assay: cell-based or functional assay; remark: listed apart in the source
[5] = biological target: T1, human TIGIT stably expressed on cells …; assay: flow cytometry, whole cell binding assay on human TIGIT expressing cells (upper panel)
[6] = biological target: T1, human TIGIT stably expressed on cells …; assay: flow cytometry (CytoFlex), whole cell binding on h-TIGIT cells; representative of three experiments

EC50 (read off the curve); NFAT luciferase reporter (RLU), h-TIGIT/NFAT Jurkat cells with PVR Raji cells and SEE [1]: ~1 nM
B1: 2B7 bivalent VHH antibody (VHH with human CH2 and CH3) (Fc fusion)
chain: QVQLVESGGGLVQAGGSLRLACAASGRTFSSYPMGWFRQGPGKERESVAAISSDGRFTYYAASVKGRFTISKDNAKSAAFLQMNSLKPEDTAVYYCAARDSGSGYYSRAQWYDYWGQGTQVTVSS[… human IgG1 Fc …]
notes: domain: CH2 and CH3; Expressed in ExpiCHO, Protein A purified

EC50 (read off the curve) [2]: ~0.2 nM
B2: 13H11 bivalent VHH antibody (VHH with human CH2 and CH3) (Fc fusion)
chain: B1 chain with A21S, R27L, S31M, P33A
notes: domain: CH2 and CH3

EC50 (read off the curve) [2]: ~0.06 nM
B3: 15A5 bivalent VHH antibody (VHH with human CH2 and CH3) (Fc fusion)
chain: QVQLVESGGGLVQAGGSLRLSCAASERTFSSFAMGWFRQAPGKEREVVAAIDPSGRYIYYKDSVKGRFTMSRDNAKSTVYLQMNSLKPDDTARYYCAARIRGEGYYTRSSFYHYWGQGTQVTVSS[… human IgG1 Fc …]
notes: domain: CH2 and CH3

EC50 (nM), TIGIT blockade NFAT luciferase reporter assay, Average [3]: 0.57 nM
EC50 (nM), TIGIT blockade NFAT luciferase reporter assay, Exp 1 [3]: 0.58 nM
EC50 (nM), TIGIT blockade NFAT luciferase reporter assay, Exp 2 [3]: 0.687 nM
EC50 (nM), TIGIT blockade NFAT luciferase reporter assay, Exp 3 [3]: 0.45 nM
EC50 (read off the curve); NFAT reporter activity (RLU), human TIGIT blockade reporter assay (lower panel) [4]: ~1 nM
EC50 (read off the curve) [5]: ~0.5 nM
EC50 (read off the curve) [6]: ~0.3 nM
B4: 2A3-LT-Fc (2A3 ML_DT VHH fused to wild type human IgG1 Fc) (Fc fusion)
chain: QVQLVESGGGVVQPGRSLRLSCAASGGSFSSYPMGWFRQAPGKERESVAAISSDLRFTYYADSVKGRFTISRDNSKNTLYLQMNSLRAEDTAVYYCAARTSGVGYYSRAQWYDYWGQGTLVTVSS[… human IgG1 Fc …]
notes: also called 2A3-LT-Fc wt; 2A3-LT-Fc wild type
